± gives the uncertainty stated by the source. The sequences are guide strands of siRNAs; only the seed at positions 2 to 7 varies.
Tests used:
M565 = test: cell viability relative to lipid-only control; higher = less toxic; details: concentration: 10 nM; 96 h; Mus musculus
Experimental: (§1)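 Arrayed screen of 4096 siRNA duplexes, each carrying one of all possible 6mer seeds at guide-strand positions 2-7 in a fixed neutral 19mer scaffold (constant flanks: U at position 1, then ACAUGUAAACCA, plus a 3' AA overhang). The passenger strand is 2'-O-methylated at positions 1-2 so only the guide strand loads into RISC. Duplexes were reverse-transfected at 10 nM with RNAiMAX in triplicate in 384-well plates; viability was read by CellTiter-Glo ATP content 96 h after transfection. Values are % viability normalised to lipid-only wells (HeyA8, H460, M565) or to siNT1 (3LL).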

H460 = test: as above; details: concentration: 10 nM; 96 h; Homo sapiens
Experimental: as §1

HeyA8 = test: as above; details: concentration: 10 nM; 96 h; Homo sapiens
Experimental: as §1

3LL = test: cell viability relative to siNT1 control; HeyA8 human ovarian and H460 human lung cancer; M565 mouse liver and 3LL mouse lung cancer; siNT1 is a non-toxic control siRNA; higher = less toxic; details: concentration: 10 nM; 96 h; Mus musculus
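Throughout, for cell viability relative to lipid-only control: reverse lipid transfection in 384-well plates, in triplicate, of duplexes on a non-toxic 19mer backbone with passenger strand 2′-O-methylated at positions 1 and 2, luminescence viability read-out.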
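Throughout, for cell viability relative to siNT1 control: Luminescence-based viability of cells reverse transfected in 384-well plates with lipid-complexed siRNAs built on a non-toxic 19mer backbone whose passenger strand carries 2′-O-methyl groups at positions 1 and 2, triplicates.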

Row | Sequence | cell viability (M565) | cell viability (H460) | cell viability (HeyA8) | cell viability (3LL)
1 | UUUUUCAACAUGUAAACCAAA | 108 ± 16% | 83.8 ± 7.7% | 84.3 ± 8.6% | 101 ± 9.4%
2 | UGGAUACACAUGUAAACCAAA | 75.5 ± 15% | 63.6 ± 8.1% | 81.9 ± 7.4% | 71.1 ± 3.9%
3 | UCCAUCGACAUGUAAACCAAA | 74.2 ± 11% | 69 ± 3.3% | 79.2 ± 4.2% | 88.6 ± 24%
4 | UAUGUGCACAUGUAAACCAAA | 68.5 ± 7.3% | 46.2 ± 6.5% | 85.6 ± 4% | 35.4 ± 4.8%
5 | UUUUAAAACAUGUAAACCAAA | 92.8 ± 4.6% | 75.8 ± 11% | 96.7 ± 10% | 96.5 ± 3.6%
6 | UCUGAUUACAUGUAAACCAAA | 69.3 ± 9.6% | 55 ± 5.7% | 83.5 ± 8.5% | 97.9 ± 14%
7 | UGGACUUACAUGUAAACCAAA | 14.5 ± 2.6% | 67.6 ± 6.7% | 87.6 ± 7.3% | 58.1 ± 5.8%
8 | UUGGCUCACAUGUAAACCAAA | 88.5 ± 11% | 44.1 ± 6.9% | 72.3 ± 3.6% | 43.6 ± 5.1%
9 | UUACAAUACAUGUAAACCAAA | 74.8 ± 2.1% | 83.8 ± 8.5% | 95.1 ± 2.3% | 85.2 ± 14%
10 | UAGGACCACAUGUAAACCAAA | 23.8 ± 4.9% | 63.4 ± 5.8% | 77.9 ± 6.1% | 27.5 ± 1.5%
11 | UGUCUGCACAUGUAAACCAAA | 8.43 ± 3.1% | 15.8 ± 1.3% | 5.88 ± 0.93% | 6.42 ± 3.9%
12 | UGGACAAACAUGUAAACCAAA | 18.3 ± 6.7% | 64.9 ± 6.9% | 83.5 ± 1.4% | 66.5 ± 3.4%
13 | UGCGAUUACAUGUAAACCAAA | 87.9 ± 1.1% | 47.4 ± 5.4% | 61.6 ± 1.5% | 94.2 ± 14%
14 | UACCCGAACAUGUAAACCAAA | 44.9 ± 5.3% | 60.2 ± 6.4% | 73.7 ± 5.4% | 79.2 ± 4.3%
15 | UACCUCGACAUGUAAACCAAA | 59 ± 7.2% | 43.7 ± 5.1% | 90.1 ± 4.7% | 83.4 ± 12%
16 | UGUGGUCACAUGUAAACCAAA | 30.8 ± 7.4% | 21.6 ± 2.3% | 30.2 ± 2.6% | 15.9 ± 6.4%
17 | UCAGUGCACAUGUAAACCAAA | 83.6 ± 10% | 38.7 ± 4% | 73.9 ± 5.2% | 92.6 ± 15%
18 | UCAAACUACAUGUAAACCAAA | 80.9 ± 6% | 47.5 ± 6.4% | 69 ± 2.5% | 84.6 ± 12%
19 | UACAACAACAUGUAAACCAAA | 85.2 ± 21% | 92.3 ± 12% | 80.3 ± 4.1% | 91 ± 14%

Row | Sequence | cell viability (M565) | cell viability (H460) | cell viability (HeyA8) | cell viability (3LL)
20 | UAGCUGAACAUGUAAACCAAA | 58.9 ± 5.2% | 79.8 ± 22% | 64.5 ± 7.7% | 57.3 ± 11%
21 | UAGAUAGACAUGUAAACCAAA | 54.1 ± 2% | 85.3 ± 17% | 80.9 ± 5.5% | 89.7 ± 9.6%
22 | UCAUGCCACAUGUAAACCAAA | 7.91 ± 2.8% | 18.2 ± 1.7% | 9.31 ± 1.2% | 12.4 ± 1.8%
23 | UUGUGGCACAUGUAAACCAAA | 58.4 ± 12% | 56.7 ± 13% | 20.1 ± 2.6% | 15.1 ± 5.5%
24 | UACAAGAACAUGUAAACCAAA | 47.9 ± 8.2% | 99.2 ± 3.9% | 75.8 ± 3.5% | 87.4 ± 9.7%
25 | UAGGGGAACAUGUAAACCAAA | 20.2 ± 4.6% | 62.6 ± 4.4% | 55.7 ± 7% | 79.3 ± 4.7%
26 | UCUCAGGACAUGUAAACCAAA | 55.7 ± 8% | 41.6 ± 2.8% | 73.3 ± 3.6% | 97.4 ± 15%
27 | UGCCAAGACAUGUAAACCAAA | 29 ± 7.3% | 46.3 ± 5.7% | 74.5 ± 4.3% | 75.2 ± 8.5%
28 | UCAAAUGACAUGUAAACCAAA | 72.8 ± 12% | 69 ± 10% | 82.9 ± 3.6% | 83.5 ± 7.1%
29 | UGUUCCCACAUGUAAACCAAA | 10.7 ± 3.2% | 45.8 ± 0.97% | 32.9 ± 6.5% | 26.1 ± 9%
30 | UUUUCUAACAUGUAAACCAAA | 92 ± 4.1% | 69.1 ± 4.3% | 95.8 ± 7.5% | 89.8 ± 1.1%
31 | UCUGCCGACAUGUAAACCAAA | 43.7 ± 6.6% | 73.9 ± 5.3% | 94.3 ± 2.5% | 99.4 ± 13%
32 | UACGAUGACAUGUAAACCAAA | 70.3 ± 11% | 71 ± 14% | 75.7 ± 6.8% | 90 ± 16%
33 | UUUCUUUACAUGUAAACCAAA | 114 ± 16% | 53.6 ± 3.3% | 97.2 ± 2.2% | 99.8 ± 1.1%
34 | UAAGGUUACAUGUAAACCAAA | 45 ± 4.4% | 60.6 ± 5.8% | 74.9 ± 6% | 78.9 ± 4.2%
35 | UGGGUUUACAUGUAAACCAAA | 40.7 ± 5.2% | 80.4 ± 20% | 41.1 ± 2.4% | 94.7 ± 10%
36 | UGGACGCACAUGUAAACCAAA | 7.77 ± 2.1% | 37.4 ± 3% | 49.1 ± 6.1% | 34.7 ± 4.3%
37 | UGGUUAGACAUGUAAACCAAA | 44.6 ± 2.8% | 48.6 ± 9.7% | 30.4 ± 3.7% | 59 ± 2.5%
38 | UUUAGGGACAUGUAAACCAAA | 82.7 ± 6% | 57.2 ± 2.3% | 85.2 ± 4% | 89.8 ± 2.1%

Row | Sequence | cell viability (M565) | cell viability (H460) | cell viability (HeyA8) | cell viability (3LL)
39 | UGAGGCCACAUGUAAACCAAA | 4.12 ± 1.1% | 15.6 ± 1.7% | 19.9 ± 1.1% | 8.42 ± 4.3%
40 | UCCUGUCACAUGUAAACCAAA | 39.1 ± 4.9% | 27.3 ± 2.4% | 58.8 ± 3.3% | 56.6 ± 13%
41 | UUCCGACACAUGUAAACCAAA | 65.6 ± 15% | 89.1 ± 6.8% | 87.4 ± 11% | 59.2 ± 5.3%
42 | UCACAUGACAUGUAAACCAAA | 56.3 ± 2.6% | 21.1 ± 0.85% | 92.8 ± 3.9% | 94.1 ± 12%
43 | UACUAUUACAUGUAAACCAAA | 71.3 ± 18% | 60.1 ± 4.5% | 52.6 ± 3.9% | 93.6 ± 7.6%
44 | UGUGGAAACAUGUAAACCAAA | 42.9 ± 8% | 86.5 ± 7.3% | 51.8 ± 3.3% | 84.6 ± 3.5%
45 | UGAACUAACAUGUAAACCAAA | 73.4 ± 4.9% | 96.3 ± 18% | 95.4 ± 4.1% | 92.9 ± 12%
46 | UUCCGAAACAUGUAAACCAAA | 101 ± 10% | 84.4 ± 15% | 91.9 ± 11% | 105 ± 18%
47 | UGACCCCACAUGUAAACCAAA | 8.1 ± 1.1% | 24.9 ± 0.54% | 30.8 ± 6.1% | 6.47 ± 1.8%
48 | UAAGUUAACAUGUAAACCAAA | 66.1 ± 12% | 69.9 ± 7.3% | 84.7 ± 15% | 86.6 ± 7.2%
49 | UCAAUCUACAUGUAAACCAAA | 83.2 ± 8.2% | 55.3 ± 7.3% | 69.5 ± 7.9% | 94.5 ± 14%
50 | UAAUGGGACAUGUAAACCAAA | 39 ± 11% | 80.3 ± 7.9% | 48.5 ± 3.8% | 39.4 ± 4.7%
51 | UAGGUGGACAUGUAAACCAAA | 9.01 ± 2.6% | 40.2 ± 14% | 14 ± 0.94% | 4.56 ± 1.2%
52 | UGGAUCCACAUGUAAACCAAA | 32.2 ± 7.3% | 50.8 ± 4.4% | 11.7 ± 1.5% | 15.2 ± 0.56%
53 | UCCACGCACAUGUAAACCAAA | 21.3 ± 3.6% | 56 ± 3.8% | 75.6 ± 7.3% | 65.9 ± 20%
54 | UCUCAACACAUGUAAACCAAA | 79.8 ± 12% | 45.7 ± 2% | 83.4 ± 4.9% | 106 ± 19%
55 | UGUUGUCACAUGUAAACCAAA | 21.6 ± 5.3% | 27 ± 3.6% | 19.7 ± 1.8% | 46.9 ± 21%
56 | UCAACCAACAUGUAAACCAAA | 51.7 ± 7% | 57.7 ± 7.3% | 87.1 ± 4.1% | 91.8 ± 14%
57 | UGGCACAACAUGUAAACCAAA | 27.2 ± 1.7% | 29.8 ± 12% | 23.4 ± 0.9% | 43.9 ± 4.4%

From the supplement of paper PMC6206098
